# This is one part of the list.
# System: HepG2
# Assay: cytotoxicity call (relative viability < 0.9)
# Settings: 10 µM
row,SMILES,cytotoxicity call
1,C=CCOC(=O)[C@@H]1[C@H]2C(=O)O[C@H](c3ccccc3)[C@H](c3ccccc3)N2[C@H](c2ccc(OCCOC(=O)[C@H]3C[C@H]4C(=O)N5CCC[C@H]5C(=O)N4[C@H]3c3ccc(O)cc3)cc2)[C@@]12C(=O)Nc1ccc(I)cc12,inactive
2,Cc1noc(C)c1NC(=O)Nc1cccc2c1O[C@H](CN(C)C(=O)Nc1cccc3ccccc13)[C@@H](C)CN([C@H](C)CO)C2=O,inactive
3,C[C@H]1NC(=O)[C@H](Cc2ccccc2)NC(=O)[C@@]23C(=O)N[C@@H](Cc4ccccc4)[C@@H]2[C@H](C)[C@@]2(C)O[C@H]2[C@H]3/C=C/C/C=C\CNC1=O,inactive
4,CN(C)CC(=O)N1[C@@H]2c3ccc(-c4cccnc4)c(=O)n3C[C@H]1[C@H](CO)[C@H]2C(=O)NC1CCC1,inactive
5,O=C(NCC[C@H]1CCCCN1S(=O)(=O)c1ccc(F)cc1)C(=O)NCCN1CCOCC1,inactive
6,C[C@@H]1CCCCO[C@H](CN(C)C(=O)NC2CCCCC2)[C@H](C)CN([C@H](C)CO)C(=O)c2cc(NC(=O)NC3CCCCC3)ccc2O1,active
7,CCOC(=O)c1c(CN2CCN(c3ccc(C)cc3)CC2)n(-c2ccccc2)c2cc(Br)c(OC)cc12,inactive
8,C[C@H]1CN([C@@H](C)CO)C(=O)c2cc(-c3cncnc3)cnc2O[C@@H]1CN(C)C(=O)CN1CCOCC1,inactive
9,Cc1noc(C)c1NC(=O)Nc1cccc2c1O[C@@H](CN(C)Cc1ccc(C(F)(F)F)cc1)[C@H](C)CN([C@@H](C)CO)C2=O,inactive
10,COc1cc2c(cc1OC)CN(C(=O)[C@@H]1[C@H]3C(=O)O[C@H](c4ccccc4)[C@H](c4ccccc4)N3[C@H](c3ccc(OCCO)cc3)[C@@]13C(=O)Nc1ccccc13)CC2,inactive

# Reference: the antibiotic and cytotoxicity screens of Wong et al. (2023)
